Measured values as given in PubChem BioAssay AID651820 (National Center for Advancing Translational Sciences (NCATS), 2012).
“And” between values parts separate entries of the source, which are not always exact repeats. Identical values can stand only once. Screen size: about 340,000 compounds; about 12,000 (3.5%) were called active. The inconclusive results got no clear call from the source; some entries with a clear call stand among them for comparison. Calls come from the whole dose curve; as a rule, active = well fitted inhibition curve with a large enough effect; inconclusive = small, poorly fitted or top-dose-only effect, or another doubt; inactive = no such curve, though single readings can be large or run the other way. Where the call is inconclusive, the potency comes from a doubtful curve fit.

experiment: qHTS Assay for Inhibitors of Hepatitis C Virus (HCV); settings: Huh7.5.1 HCVcc-Cre (HCVcc is cell-culture hepatitis C virus) infection, luciferase reporter, 44 h; series mostly up to 41.8 µM
Summary of the method: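 Luciferase read-out (15 sec integration) after a 15 min room-temperature substrate step quantifies HCVcc-Cre infection. Cells, 1,000 per well, had compound added 4 h post-plating, then virus at ~0.5 moi, and were cultured 44 h.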
Potency is the fitted concentration of half-maximal effect; tags give direction and shape of the fitted curve.

SMILES | Potency
COc1ccc(CNC(=O)CN(Cc2ccccc2)C(=O)CCC(=O)Nc2nccs2)cc1 | inactive
CCOc1ccccc1CNC(=O)Cn1c(=O)oc2ccccc21 | inactive
O=C(N/N=C\c1ccccc1)c1ccccc1-n1cccc1 | inactive
O=C(Nc1nc(-c2ccccc2)cs1)c1ccc(Br)o1 | inconclusive: 15.8 µM [inhibitor, partial curve]
O=C1CCN(Cc2ccc(O)cc2)CCN1CCO | inactive
CC(C)(C)c1ccc(-c2noc(CCC(=O)NCC3CCCO3)n2)cc1 (stereo unspecified) | inconclusive: 31.6 µM [inhibitor, single point]
CCOC(=O)c1c(C)[nH]c(C(=O)COC(=O)c2[nH]c(C)c(C(C)=O)c2C)c1C | inconclusive: 1 µM [inhibitor, full curve]
CCN1CCN(C(CNS(=O)(=O)c2ccc(Cl)cc2)c2ccccc2)CC1 (stereo unspecified) | inconclusive: 11.2 µM [inhibitor, partial curve]
Cc1cccc(-c2nc3c(c(SCC(=O)N(C)C)n2)CCCC3)c1 | inconclusive: 3.55 µM [inhibitor, full curve]
Cc1cc(NC(=O)CCl)n(-c2nc3ccccc3s2)n1 | inconclusive: 22.4 µM [inhibitor, single point]
O=C(c1ccncc1)c1ccc(N2CCN(C3CC(=O)N(Cc4ccccc4)C3=O)CC2)cc1 (stereo unspecified) | inconclusive: 35.5 µM [inhibitor, partial curve, poor fit]
CCC(=O)Nc1ccc2c(c1)Cc1cc([N+](=O)[O-])ccc1-2 | inactive
CCNC(=O)N1CCN(CCCC(c2ccc(F)cc2)c2ccc(F)cc2)CC1 | inconclusive: 3.16 µM [inhibitor, partial curve]
CCOC(=O)c1sc(NC(=O)c2cccc(S(=O)(=O)N3CCc4ccccc43)c2)c(C#N)c1C | active: 10 µM
O=C1c2ccccc2C(=O)N1CCCc1c[nH]c2ccc(Cl)cc12 | inactive
COc1cccc(NC(=S)N(CCCN2CCCC2)Cc2cccn2Cc2ccc(Cl)cc2)c1 | inconclusive: 3.98 µM [inhibitor, partial curve]
Cc1ccc(C)c2nc(SCC(=O)N3CCCc4ccccc43)c(C#N)cc12 | active: 6.31 µM
Cc1cccc(C(=O)NNC(=S)NC(=O)c2ccccc2)c1 | inconclusive: 20 µM [inhibitor, partial curve, poor fit]
COCCCNC(=O)c1nc2ccccc2c(=O)n1NC(=O)Nc1c(Cl)cccc1Cl | inconclusive: 2.82 µM [inhibitor, single point]
CN(C)C(=O)Oc1ccc(Br)cc1C(=O)Nc1ccc(F)c(Cl)c1 | inconclusive: 11.2 µM [inhibitor, single point]
CC1=C(C(=O)OC2CCCC2)C(c2ccc(C)o2)C2=C(CC(c3cccs3)CC2=O)N1 (stereo unspecified) | inconclusive: 3.55 µM [inhibitor, full curve]
CCS(=O)(=O)N1CCC(C(=O)NCCCOC)CC1 | inactive
CN(C)C(CNc1ncnc2sc3c(c12)CCCC3)c1ccco1 (stereo unspecified) | inconclusive: 14.1 µM [inhibitor, single point]
CCc1cc(=O)oc2c3c(cc(OCC(=O)NCc4ccncc4)c12)OC(C)(C)CC3 | inconclusive: 5.62 µM [inhibitor, partial curve]

SMILES | Potency
COc1ccccc1/C=C/C(=O)NC(=S)N1CCOCC1 | inactive
COCCCNC(=O)Nc1ccc2c(c1)N(C)C(=O)CS2 | inactive
CCc1cc(C(c2ccc(OC)c(OC)c2)N2CCOCC2)c(NC(=O)c2ccccc2)s1 (stereo unspecified) | inconclusive: 6.31 µM [inhibitor, partial curve]
CCOc1ccc(C(C)=O)cc1CSc1nc(C)cc(C)n1 | inconclusive: 15.8 µM [inhibitor, single point]
CCc1ccccc1Nc1nc(N)nc(CSc2nnc3ccccn23)n1 | inactive
O=C(Nc1ccc(NC(=O)c2ccccc2O)cc1)Nc1ccc(F)cc1F | inconclusive: 3.98 µM [inhibitor, partial curve]
CCCCN(C)CC(O)Cn1cc(/C=C/C(=O)c2cccs2)c2ccccc21 (stereo unspecified) | inconclusive: 3.55 µM [inhibitor, partial curve]
NS(=O)(=O)c1ccc(NC(=O)COC(=O)CN2C(=O)C3CC=CCC3C2=O)cc1 (stereo unspecified) | inactive
CCCN1CC=C2C(C#N)=C(N)C(C#N)(C#N)C(c3cccc(OC)c3OC)C2C1 (stereo unspecified) | inconclusive: 12.6 µM [inhibitor, partial curve, poor fit]
CSc1ccc(/C=C(\C#N)C(=O)NC2CCCCC2)cc1 | inconclusive: 5.62 µM [inhibitor, single point]
COC(=O)c1cc(NC(=O)c2cccc(C(F)(F)F)c2)c(=O)oc1C | inactive
COCCN(C(=O)Cc1ccc(S(=O)(=O)N2CCOCC2)s1)c1c(N)n(CC(C)C)c(=O)[nH]c1=O | inactive
CCCCOCCCNc1ncnc2c1[nH]c1ccccc12 | active: 8.91 µM
O=c1c2c3c(sc2nc2n1CCCC2)CCCCC3 | inconclusive: 7.94 µM [inhibitor, partial curve]
CC(=O)N1CCc2cc(S(=O)(=O)NCC(=O)NCc3ccc(F)cc3)ccc21 | inactive
CCCCN(CC)C(=O)CSc1cc(=O)n(C)c2ccccc12 | inconclusive: 31.6 µM [inhibitor, single point]
CC1=C(C(=O)OCc2ccccc2)C(c2ccco2)n2ncnc2N1 (stereo unspecified) | inconclusive: 12.6 µM [inhibitor, single point]
Cc1ccc(N(Cc2cc3ccccc3[nH]c2=O)C(=O)c2cccs2)cc1C | inconclusive: 7.94 µM [inhibitor, partial curve, poor fit]
COc1ccc(CN2CCN(Cc3c[nH]c4ccccc34)CC2CCO)cc1C (stereo unspecified) | inconclusive: 31.6 µM [inhibitor, single point]
COC(=O)c1cc(-c2ccccc2)sc1NC(=O)CN1C(=O)c2ccccc2C1=O | inconclusive: 7.94 µM [inhibitor, partial curve]
CC1Sc2ccc(S(=O)(=O)N3CCC(C(=O)Nc4cccc(Cl)c4)CC3)cc2NC1=O (stereo unspecified) | active: 3.16 µM
O=C(Cc1ccccc1)Nc1nc2ccccc2s1 | inactive
O=C(CCN1C(=O)S/C(=C\c2ccc(Cl)cc2)C1=O)Nc1ccc(C(=O)O)cc1 | inactive
COC(=O)c1c(C)oc2ccc(N(C(=O)Oc3ccccc3)S(=O)(=O)c3ccc(Cl)c([N+](=O)[O-])c3)cc12 | inconclusive: 0.501 µM [inhibitor, full curve, poor fit]

SMILES | Potency
Cc1ccc2cc(CN(CC3CCCO3)C(=S)Nc3ccccc3)c(=O)[nH]c2c1C (stereo unspecified) | inconclusive: 0.562 µM [inhibitor, full curve]
CSc1ccccc1NC(=O)Nc1cccc(Cl)c1 | inconclusive: 22.4 µM [inhibitor, single point]
Cc1cccc(-c2nc(C#N)c(NC3CCCCC3)o2)c1 | inconclusive: 22.4 µM [inhibitor, single point]
c1ccc(CCCCN2CCN=C2Nc2ccccc2)cc1 | inactive
Nc1c2nc(-c3ccccc3Cl)[nH]c(=O)c2nc(=O)n1-c1ccccc1 | inconclusive: 10 µM [inhibitor, partial curve]
O=C(/C=C/c1ccccc1)NCc1ccc2c(c1)OCO2 | inactive
CC(=O)c1ccc(C(=O)Nc2nnc(-c3ccc(Cl)cc3)o2)cc1 | inactive
Cc1ccc(NC(=S)NCc2ccc(Cl)cc2)c(C)c1 | inconclusive: 31.6 µM [inhibitor, single point]
COc1ccc(C)cc1Nc1c2c(nc3ccccc13)CCC2 | inconclusive: 31.6 µM [inhibitor, single point]
CCCN(CCC)C(=O)C1CCN(c2ccc(S(=O)(=O)N3CCOCC3)cc2[N+](=O)[O-])CC1 | inactive
N#C/C(=C\c1ccc(N2CCCCC2)o1)C(N)=O | inactive
CCc1nc2oc3ccccc3c(=O)c2c(=O)n1CCOC | inconclusive: 31.6 µM [inhibitor, single point]
OCc1cn(-c2ccccc2)nc1-c1ccc2c(c1)OCCO2 | active: 11.2 µM
O=C(c1ccco1)N1CCN(C(=O)c2ccc(-c3ccccc3Cl)o2)CC1 | active: 22.4 µM
O=C(CNC(=O)c1ccccc1F)NCc1ccccn1 | inactive
COc1cc(COc2ccc3c(C)c(Cc4ccccc4)c(=O)oc3c2)cc(OC)c1OC | inconclusive: 35.5 µM [inhibitor, partial curve, poor fit] and inconclusive: 7.94 µM [inhibitor, partial curve]
Cc1cccnc1Nc1nc(-c2ccccn2)cs1 | inconclusive: 0.708 µM [inhibitor, full curve]
CS(=O)(=O)Nc1ccc(Cc2ccc(NS(C)(=O)=O)cc2)cc1 | inconclusive: 31.6 µM [inhibitor, single point]
CCOc1cccc(/C=N/N2CCN(c3ccc(Cl)cc3)CC2)c1O | inconclusive: 11.2 µM [inhibitor, partial curve]
CCn1nnc(NC(=O)COc2ccc([N+](=O)[O-])cc2)n1 | inactive
CC(C)c1cc(-c2cc(-c3ccccc3)on2)nc(NC2CCCC2)n1 | inconclusive: 2.82 µM [inhibitor, single point]
Cc1c(C)n(C)c2ccc(C(=O)NCCCN3CCN(c4ccccc4F)CC3)cc12 | inconclusive: 11.2 µM [inhibitor, single point]
COc1ccc(OCCCC(=O)Nc2cc(S(=O)(=O)N3CCCCC3)ccc2OC)cc1 | inconclusive: 17.8 µM [inhibitor, single point]
